Measurements as given in the supplement of paper PMC12889115.
The list shows a part of the results. Most values come without repeats; read them as rough.

system: Salmonella enterica serovar Typhimurium SL1344; test: bacterial growth OD600 after 18 h in MHB with 0.5 µg/mL polymyxin B; higher = more bacterial growth (less inhibition); settings: 25 µM; polymyxin B 0.5 µg/mL; system: broth
Procedure: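 Secondary screen of the 553 primary hits at 25 µM. (i) S. Typhimurium SL1344 grown in Mueller-Hinton broth with 0.5 µg/mL polymyxin B, OD600 read after 18 h. (ii) SAFIRE assay: RAW 264.7 macrophages infected with S. Typhimurium sifB::gfp (MOI 30); compound added 2 h post-infection; cells fixed at 18 h; GFP-positive pixel fraction per macrophage imaged by confocal microscopy and expressed as % of DMSO control.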
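Also: polymyxin B level opens the outer membrane while sparing the inner membrane, with novobiocin wells as reference growth inhibitor.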

| SMILES | bacterial growth OD600 |
| --- | --- |
| COc1ccc2c(c1)NC(=O)C2CC(=O)N(Cc1ccncc1)Cc1cccc(OCCc2ccc(F)cc2)c1 (stereo unspecified) | -0.001 |
| COCc1ccc(C(=O)N2CCCC(CCc3ccccc3)C2)o1 (stereo unspecified) | 0.006 |
| CCC(C)Nc1ccc(-c2nc(CC(C)C)no2)cn1 (stereo unspecified) | 0 |
| CCOC(=O)C1CCCCN1C(=O)CC1(c2ccc(-c3ccccc3)cc2)CC(=O)N(C)C1=O (stereo unspecified) | -0.02 |
| CC(C)c1cc(CN2CCC(n3nccc3NC(=O)c3ccc4c(c3)OCO4)CC2)n[nH]1 | 0.705 |
| CCCCn1c(CN2CCCCC2c2ccc(F)cc2)cnc1S(=O)(=O)CC (stereo unspecified) | 0.002 |
| COc1cc(CN2CCOc3ccc(C(C)(O)COc4ccccc4)cc3C2)ccc1F (stereo unspecified) | -0.004 |
| CC(C)CS(=O)(=O)c1ncc(CN(C)Cc2ccccc2)n1Cc1ccccc1 | 0.008 |
| COCCCN1C(=O)CC(CC(=O)N2CCC(c3ccc(F)cc3)C2)(c2ccccc2Cl)C1=O (stereo unspecified) | 0.051 |
| COc1ccc2c(c1)SC(c1ccc(F)c(F)c1)CCN2CC1CC1 (stereo unspecified) | -0.002 |
| OC(Cc1ccccc1)c1ccc2c(c1)CN(Cc1ccc(OC(F)F)cc1)CCO2 (stereo unspecified) | -0.001 |
| O=C(c1ccc2c(c1)OCO2)C1CCCN(C(=O)c2csc(-c3cccs3)n2)C1 (stereo unspecified) | 0.003 |
| Fc1ccc(-c2cnnc(NCc3cccc(OC(F)(F)F)c3)n2)cc1 | 0.006 |
| CCn1cc(CN2CCC(c3ccc(OC)c(C)c3)Sc3cc(OC)ccc32)c(C)n1 (stereo unspecified) | -0.001 |
| COc1cccc(CNCc2c(C(=O)N3CCCCCCC3)nc3ccc(Cl)cn23)c1 | 0.081 |
| CN(C)C(=O)CC(c1ccccc1)c1cccc(Cl)c1 (stereo unspecified) | 0.112 |
